Structures can show the parent of a compound that is named as a salt. Some of these results come from one statement about several compounds together. Some compounds share one range, which may span the group rather than tell each member.
How the values were obtained:
[1] = test system: mouse whole blood; experiment: Cytokine (IFNβ) secretion in mouse whole blood in response to STING agonists; type: cell-based; settings: 1 μM concentration, 4 h time point
[2] = test system: human whole blood; experiment: Cytokine (IFNβ) secretion in human whole blood in response to STING agonists; type: cell-based; settings: 3 μM concentration, 5 h time point
[3] = test system: CT26 Allograft; experiment: Tumor volume in CT26 allograft BALB/c mice model, intravenous administration; type: in vivo; settings: after day 21
Protocol: Effect of Compounds on Tumor Volume in CT26 Allograft BALB/c Mice Model by Intravenous (i.v.) Administration
Healthy, female BALB/c mice in the age group of 5-8 weeks issued from Research Animal Facility (RAF). These mice were housed in individually ventilated cages (IVC) in the experimental animal room and were acclimatized not less than 5 days prior to cell inoculation. All the experimental activities were carried out inside the biosafety cabinet to ensure sterility. Under aseptic conditions, Allograft tumor model was generated by inoculating BALB/c mice with 0.1 million CT26 single cell suspension (colorectal cancer model), using 1 mL disposable syringe fitted with a 26G ½″ sterile needle. Each mouse was inoculated with 100 μL of CT26 cell suspension in phosphate buffered saline (PBS) media, subcutaneously in right flank region. Mice were randomized into different groups, post cell inoculation, with approximately equal mean and equal variation (S.E.M.) of tumor volumes in various treatment groups including vehicle control group.
Tumor size was measured with Vernier caliper when the tumor became palpable. Tumor volume (T. V.) was calculated by using the formula: Tumor volume (mm^3)=(L×W^2)/2 • Where, L—Length of tumor, W—Width of tumor
Mice were selected and randomized, on the basis of tumor volume, into required no. of groups with approximately equal mean and equal variation on day 1 of treatment, post-tumor cell inoculation. All study groups were treated via intravenous route on day 1, 4 and 8 dosing schedule, through lateral tail vein at a dose volume of 5 mL/kg.
Tumor sizes were measured with Vernier caliper twice weekly and body weights of mice were recorded daily.
Percent tumor growth inhibition (% TGI) was calculated using the formula: % TGI=[1−(Tf−Ti)/(Cf−Ci)]×100 Wherein Tf and Ti are the final and initial test tumor volumes, respectively, and Cf and Ci are the final and initial control mean tumor volumes, respectively.
Percent Tumor Regression (% TR) was calculated using the formula: % TR=[(Initial T.V.−Final T.V.)/(Initial T.V.)]×100 Wherein T.V.=Tumor Volume
Body weight change (%) was calculated by using the formula: Body weight change (%)[=(Final B.Wt.)−(Initial B.Wt.)/Initial B.Wt.]×100 Wherein B.Wt.=Body weight

[4] = target: T1, Human STING (Homo sapiens, UniProt Q86WV6, G230A/H232R/R293Q/R71H); experiment: Stimulation of human STING signaling in THP1 cell line (THP1-Blue ISG SEAP reporter); type: cell-based; settings: THP1-Blue ISG cells, SEAP activity, 18-20 hours; lower bound in nM, upper bound in micromolar
T1 construct: using human THP1-Blue™ ISG SEAP based reporter cell line (Invivogen); host or cells: THP1-Blue ISG cells (human monocytic THP-1 derived SEAP reporter line)
T1 sequence (Q86WV6 whole entry R71H/G230A/H232R/R293Q): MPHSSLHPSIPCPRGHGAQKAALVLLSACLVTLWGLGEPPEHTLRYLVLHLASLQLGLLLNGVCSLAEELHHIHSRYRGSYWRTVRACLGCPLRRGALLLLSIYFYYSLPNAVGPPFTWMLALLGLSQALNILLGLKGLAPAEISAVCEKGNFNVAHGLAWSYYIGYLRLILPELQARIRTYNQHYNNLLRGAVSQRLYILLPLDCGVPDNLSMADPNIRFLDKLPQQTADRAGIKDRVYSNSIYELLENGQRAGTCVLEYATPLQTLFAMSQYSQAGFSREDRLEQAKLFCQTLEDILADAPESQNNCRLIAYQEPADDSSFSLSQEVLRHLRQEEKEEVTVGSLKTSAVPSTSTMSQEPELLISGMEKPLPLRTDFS
Protocol: Biological Assay—Stimulation of Human STING Signaling in THP1 Cell Line
Compounds were tested for their STING activation potential using human THP1-Blue™ ISG SEAP based reporter cell line (Invivogen). Briefly, THP1-Blue ISG cells (100,000 cells/well) in 96 well plate were treated with varying concentrations of test and reference compounds and incubated at 37° C. with 5% CO2 for 18-20 hours. The control untreated cells were also set up. Post incubation, the cell supernatant was tested for SEAP (Secreted Embryonic Alkaline Phosphatase) activity using the QuantiBlue™ substrate reagent (Invivogen). The formation of blue coloured product was quantified by measuring absorbance at wavelength of 620 nm using PheraStar/Tecan reader. The average of duplicate readouts for each data point was plotted in GraphPad prism 6 against the concentration of test or reference compound to calculate EC50 value. The fold of SEAP induction or increase in luminescence at different data points was estimated against the un-stimulated cell control set.

Row | Structure (SMILES) | IFNβ secretion [1] [pg/mL] | IFNβ secretion [2] [pg/mL] | mice showing more than 70% tumor regression ([3]; 0.375 mpk (mg/kg)) | mice showing more than 70% tumor regression ([3]; 1.5 mpk (mg/kg)) | mice showing more than 70% tumor regression ([3]; 3 mpk (mg/kg)) | EC50 [4] [nM]
1 | CCn1nc(C)cc1C(=O)Nc1nc2cc(C(N)=O)cc3c2n1C/C=C/Cn1c(NC(=O)c2cc(C)nn2CC)nc2cc(C(=O)N[C@H]4CC[C@H](c5nnn[nH]5)CC4)cc(c21)OC[C@@H](N1C2CCC1COC2)CO3 [Compound 12, (8S,E)-N4-((1R,4S)-4-(1H-tetrazol-5-yl)cyclohexyl)-8-(3-oxa-8-azabicyclo[3.2.1]octan-8-yl)-1,15-bis(1-ethyl-3-methyl-1H-pyrazole-5-carboxamido)-8,9,16,19-tetrahydro-7H-6,10-dioxa-2,14,15a,19a-tetraazacyclopentadeca[3,2,1-cd:8,9,10-c′d′]diindene-4,12-dicarboxamide sodium salt] | 200 to 1000 | 200 to 600 | more than 75% | – | – | –
2 | CCn1nc(C)cc1C(=O)Nc1nc2cc(C(N)=O)cc3c2n1C/C=C/Cn1c(NC(=O)c2cc(C)nn2CC)nc2cc(C(=O)N[C@H]4CC[C@H](C(=O)O)CC4)cc(c21)OCCCO3 [Compound 2, (1R,4R)-4-((E)-12-carbamoyl-1,15-bis(1-ethyl-3-methyl-1H-pyrazole-5-carboxamido)-8,9,16,19-tetrahydro-7H-6,10-dioxa-2,14,15a,19a-tetraazacyclopentadeca[3,2,1-cd:8,9,10-c′d′]diindene-4-carboxamido)cyclohexane-1-carboxylic acid sodium salt] | 200 to 1000 | 200 to 600 | more than 75% | more than 75% | more than 75% | –
3 | CCn1nc(C)cc1C(=O)Nc1nc2cc(C(N)=O)cc3c2n1C/C=C/Cn1c(NC(=O)c2cc(C)nn2CC)nc2cc(C(=O)N[C@H]4CC[C@H](c5nnn[nH]5)CC4)cc(c21)OCCCO3 [Compound 6, (E)-N-((1R,4R)-4-(1H-tetrazol-5-yl)cyclohexyl)-1,15-bis(1-ethyl-3-methyl-1H-pyrazole-5-carboxamido)-8,9,16,19-tetrahydro-7H-6,10-dioxa-2,14,15a,19a-tetraazacyclopentadeca[3,2,1-cd:8,9,10-c′d′]diindene-4,12-dicarboxamide sodium salt] | 200 to 1000 | 200 to 600 | more than 75% | – | – | –
4 | CCn1nc(C)cc1C(=O)Nc1nc2cc(C(N)=O)cc3c2n1C/C=C/Cn1c(NC(=O)c2cc(C)nn2CC)nc2cc(C(=O)NCCCn4cc(C(=O)O)cn4)cc(c21)OCC(N1CC2CCC(C1)O2)CO3 (stereo not shown) [Compound 23, (E)-1-(3-(8-(8-oxa-3-azabicyclo[3.2.1]octan-3-yl)-12-carbamoyl-1,15-bis(1-ethyl-3-methyl-1H-pyrazole-5-carboxamido)-8,9,16,19-tetrahydro-7H-6,10-dioxa-2,14,15a,19a-tetraazacyclopentadeca[3,2,1-cd:8,9,10-c′d′]diindene-4-carboxamido)propyl)-1H-pyrazole-4-carboxylic acid] | – | – | – | – | – | 101 to 2500
5 | CCn1nc(C)cc1C(=O)Nc1nc2cc(C(N)=O)cc3c2n1C/C=C/Cn1c(NC(=O)c2cc(C)nn2CC)nc2cc(C(=O)NCCCn4cc(C(=O)O)cn4)cc(c21)OCCCO3 [Compound 8, (E)-1-(3-(12-carbamoyl-1,15-bis(1-ethyl-3-methyl-1H-pyrazole-5-carboxamido)-8,9,16,19-tetrahydro-7H-6,10-dioxa-2,14,15a,19a-tetraazacyclopentadeca[3,2,1-cd:8,9,10-c′d′]diindene-4-carboxamido)propyl)-1H-pyrazole-4-carboxylic acid sodium salt] | 200 to 1000 | 200 to 600 | more than 75% | – | – | –
6 | CCn1nc(C)cc1C(=O)Nc1nc2cc(C(N)=O)cc3c2n1C/C=C/Cn1c(NC(=O)c2cc(C)nn2CC)nc2cc(C(=O)N[C@H]4CC[C@H](C(=O)O)CC4)cc(c21)OC[C@@H](N1C2CCC1COC2)CO3 [Compound 14, (1S,4R)-4-((8S,E)-8-(3-oxa-8-azabicyclo[3.2.1]octan-8-yl)-12-carbamoyl-1,15-bis(1-ethyl-3-methyl-1H-pyrazole-5-carboxamido)-8,9,16,19-tetrahydro-7H-6,10-dioxa-2,14,15a,19a-tetraazacyclopentadeca[3,2,1-cd:8,9,10-c′d′]diindene-4-carboxamido)cyclohexane-1-carboxylic acid sodium salt] | 200 to 1000 | 200 to 600 | more than 75% | – | – | –
7 | CCn1nc(C)cc1C(=O)Nc1nc2cc(C(N)=O)cc3c2n1C/C=C/Cn1c(NC(=O)c2cc(C)nn2CC)nc2cc(C(=O)N[C@H]4CC[C@H](C(=O)O)CC4)cc(c21)OCC(N1CCOCC1)CO3 (stereo partly drawn) [Compound 26, (1R,4R)-4-((E)-12-carbamoyl-1,15-bis(1-ethyl-3-methyl-1H-pyrazole-5-carboxamido)-8-morpholino-8,9,16,19-tetrahydro-7H-6,10-dioxa-2,14,15a,19a-tetraazacyclopentadeca[3,2,1-cd:8,9,10-c′d′]diindene-4-carboxamido)cyclohexane-1-carboxylic acid] | – | – | – | – | – | 101 to 2500

— US12479858B2, “Macrocyclic compounds as sting agonists and methods and uses thereof” (Lupin Limited, priority 2019, dated 2025)
